# Among all 150,000 compounds or so, about 6,500 (4.3%) were called active. Inconclusive results, whose numbers are uncertain, are shown with a selection of clear calls. The call rests on the fitted dose curve; in most records, active means well fitted inhibition curve with a large enough effect (not every such curve was filed as active); inconclusive means small, poorly fitted or top-dose-only effect, or another doubt; inactive means no such curve, though single readings can be large or run the other way. No potency is given beside an inconclusive call; the fits are too rough.
# Molecular target: 15-hydroxyprostaglandin dehydrogenase [NAD(+)] (Homo sapiens) (UniProt P15428)
# UniProt P15428, sequence (P15428 whole entry, looked up): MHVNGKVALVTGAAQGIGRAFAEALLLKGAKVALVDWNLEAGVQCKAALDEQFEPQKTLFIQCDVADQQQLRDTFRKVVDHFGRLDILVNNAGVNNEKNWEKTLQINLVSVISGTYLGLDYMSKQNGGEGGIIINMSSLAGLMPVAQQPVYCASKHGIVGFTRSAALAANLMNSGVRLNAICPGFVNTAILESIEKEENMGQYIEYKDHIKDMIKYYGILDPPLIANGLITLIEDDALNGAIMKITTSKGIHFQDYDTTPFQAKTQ
# Assay: qHTS Assay for Inhibitors of HPGD (15-Hydroxyprostaglandin Dehydrogenase)
# Settings: purified HPGD, NADH fluorescence kinetic, PGE2 substrate; activity change, negative = inhibition: hits give low values
# In short: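 NADH formation kinetics: reaction with 30 uM PGE2 and 1 mM NAD+ (final), 20 nM enzyme, Tris-HCl pH 8 with Tween 20, after 15 min compound preincubation at room temperature. Fluorescence change, last versus first of five reads.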
# On the % scale 0 is the no-effect control and ±100 the full control effect; potency means the concentration at half of the fitted maximal effect; tags describe the fitted curve by direction and shape.
Structure (SMILES),Potency,"activity change, negative = inhibition"
CCC(CC)NC(=O)COC(=O)c1ccc(NS(=O)(=O)c2ccc3c(c2)OCCO3)cc1,active: 25.1 µM,–
COc1ccc(CC(=O)Nc2ccc(-c3noc(-c4ccc(Cl)cc4)n3)cc2)cc1,–,inactive: -3.15%
O=C(NCc1ccccc1)N(Cc1cc2cc3c(cc2[nH]c1=O)OCO3)CC1CCCO1 (stereo unspecified),"inconclusive [inhibitor, partial curve]",–
Cc1cc(C)c2c(-n3cccc3)c(C(=O)NNS(=O)(=O)c3ccc(Br)cc3)sc2n1,–,inactive: -4.1%
O=c1cc2c(nn1Cc1ccc(Cl)cc1)-c1ccccc1CC2,"inconclusive [inhibitor, partial curve]",–
CCCc1cc(C(=O)Nc2sc3c(c2C(=O)OCC)CCCC3)no1,"inconclusive [inhibitor, partial curve]",–
O=C1Nc2ccc(S(=O)(=O)NCc3ccccn3)c3cccc1c23,"inconclusive [inhibitor, partial curve]",–
CN1CCN(c2c(F)cc3c(=O)c(C(=O)O)cn4c3c2SCC4)CC1,"inconclusive [inhibitor, partial curve]",–
CCOC(=O)c1cc2c(=O)n3cccc(C)c3nc2n(Cc2ccccc2Cl)c1=N,"inconclusive [inhibitor, partial curve]",–
CCOC(=O)c1cnc(-c2cccc(OC)c2)[nH]c1=O,–,inactive: -11.3%
CC(C)=CCc1c2c(c3occ(-c4ccc(O)cc4)c(=O)c3c1O)C=CC(C)(C)O2,–,inactive: -4.39%
COCCNc1oc(-c2ccc(F)cc2)nc1C#N,"inconclusive [inhibitor, partial curve]",–
COc1cc(/C=N/Nc2nc3ccccc3s2)ccc1OC(=O)c1ccccc1F,–,inactive: -27.6%
NC(=O)COc1ncn(-c2ccccc2)n1,–,inactive: -12%
Cn1nc(C(F)(F)F)c(C#N)c1N1CCN(c2cccc(C(F)(F)F)c2)CC1,–,inactive: -8.61%
CCC(C)NS(=O)(=O)c1ccc(S(=O)(=O)N2CC=C(c3ccc(F)cc3)CC2)cc1 (stereo unspecified),"inconclusive [inhibitor, single point]",–
COCCn1c(N)c(C(=O)OCc2ccccc2)c2nc3ccccc3nc21,"inconclusive [inhibitor, partial curve]",–
O=C(CCCn1c(SCC(=O)NC2CCCCC2)nc2ccccc2c1=O)NCC1CCCO1 (stereo unspecified),"inconclusive [inhibitor, partial curve]",–
Cc1ccc(-n2ncc3c(=O)n(CC(=O)N4CCCCCC4)cnc32)cc1,"inconclusive [inhibitor, partial curve]",–
COc1ccc(N2CCN(C(=O)CC34CC5CC(CC(C5)C3)C4)CC2)c([N+](=O)[O-])c1,"inconclusive [inhibitor, single point]",–
Cc1ccc(SC(C)C(=O)NCC(C)C)cc1 (stereo unspecified),"inconclusive [inhibitor, single point]",–
O=C(NCc1ccccc1Cl)C1CCC(CNc2c(N3CCCCC3)c(=O)c2=O)CC1 (stereo unspecified),active: 12.6 µM,–
CCOC(=O)c1c(NC(=O)CSc2ncnc3ccccc23)sc(C(C)=O)c1C,"inconclusive [inhibitor, partial curve]",–
CCNC(=S)NS(=O)(=O)c1ccc(CC)cc1,"inconclusive [inhibitor, single point]",–

Structure (SMILES),Potency,"activity change, negative = inhibition"
O=C(COC(=O)c1c2ccccc2cc2ccccc12)Nc1ncc(C(F)(F)F)cc1Cl,"inconclusive [inhibitor, partial curve]",–
CCc1nccn1C(=O)c1cnn2c(C(F)F)cc(-c3ccccc3)nc12,"inconclusive [inhibitor, partial curve]",–
COc1ccc(NC(=S)N(CCN(C)C)C(C)c2ccco2)cc1Cl (stereo unspecified),–,inactive: -13.3%
O=[N+]([O-])c1ccc(N/N=C/c2ccc[nH]2)cc1,active: 14.1 µM,–
CC(C)n1c(-c2ccc(N(C)C)cc2)nc2ccccc21,"inconclusive [inhibitor, partial curve]",–
COc1ccc(S(=O)(=O)N(C)c2ccc(C(=O)NCCC(C)C)cc2)cc1,active: 2 µM,–
Cc1cc(Br)ccc1OCCCCN1CCC(C)CC1,–,inactive: -3.51%
COCCNc1nc(C)nc2c1nc(-c1ccccc1)n2CCCN1CCCCC1C (stereo unspecified),"inconclusive [inhibitor, partial curve]",–
CCCCSC1=C(C#N)C(c2ccccc2C)C(C(=O)OCC)C(=O)N1 (stereo unspecified),"inconclusive [inhibitor, partial curve]",–
Cc1ccc(-n2c(C)cc(C(=O)CSc3nncs3)c2C)cc1,active: 25.1 µM,–
COc1ccccc1/C=N/NC(=O)CN(C1=NS(=O)(=O)c2ccccc21)c1ccccc1,"inconclusive [inhibitor, partial curve]",–
CN(C)c1ccc(-c2nccc(NCc3ccccc3)n2)cc1,"inconclusive [inhibitor, partial curve]",–
COC(=O)c1c(CSc2cccc(C)c2)noc1C(=O)NCc1ccco1,active: 11.2 µM,–
CCCOc1ccc(-c2nnc(-c3cccs3)o2)cc1,"inconclusive [inhibitor, partial curve]",–
Cc1cc(C)c(NC(=O)CSc2nccn2C)c(C)c1,active: 6.31 µM,–
CCOC(=O)/C(C#N)=C\C1=C(N2CCCC2)CC(C)(C)OC1,–,inactive: -21.5%
CC(=O)N1CCN(c2ccc([N+](=O)[O-])c(-n3nc(C)cc3C)c2)CC1,–,inactive: -2.54%
Cc1ccc(NC(=O)COC(=O)c2ccccc2Nc2ccccc2)cc1,"inconclusive [inhibitor, partial curve]",–
CCn1cnc2c1c(=O)n(CC(=O)N1CCc3ccccc31)c(=O)n2Cc1ccccc1,–,inactive: -12.8%
COc1ccc(/C=N/OCC(=O)Nc2nc3ccccc3s2)cc1OC,"inconclusive [inhibitor, full curve, poor fit]",–
COC(=O)c1sccc1NC(=S)N1CCCCC1,"inconclusive [inhibitor, partial curve]",–
Cc1onc(-c2ccccc2)c1C(=O)N/N=C/c1cccc(O)c1,active: 28.2 µM,–
CCN(CC)S(=O)(=O)c1cccc(-c2nnc(SCc3nnc(-c4ccccc4)o3)n2C)c1,"inconclusive [inhibitor, partial curve]",–
CC(=O)c1c(C)[nH]c(C(=O)N2CCN(c3ncccn3)CC2)c1C,–,inactive: -15.8%

Structure (SMILES),Potency,"activity change, negative = inhibition"
O=S(=O)(NC1CCc2ccccc21)c1ccc(S(=O)(=O)N2CCCC2)cc1 (stereo unspecified),–,inactive: -6.53%
COCCOC(=O)C1=C(C)OC(N)=C(C#N)C1c1ccc2c(c1)OCO2 (stereo unspecified),active: 31.6 µM,–
O=C(Cn1nnc(-c2ccccc2-n2cnnn2)n1)NCc1ccccc1,–,inactive: -16.3%
Cc1nc2cc(C(=O)OCC(=O)Nc3ccc(C#N)cc3)ccc2n1-c1ccccc1,"inconclusive [inhibitor, partial curve]",–
CC(C)CCn1c(SCc2ccc(Cl)cc2)nc2c1c(=O)[nH]c(=O)n2C,active: 25.1 µM,–
COc1cccc(-c2cc(C(=O)N3CCCCC3C)no2)c1 (stereo unspecified),active: 15.8 µM,–
Cc1cccc(Oc2nc(CN3CCOCC3)nc3sc4c(c23)CCCC4)c1,–,inactive: -16%
Cc1sc(NC(=O)C2C3CCC(O3)C2C(=O)O)c(C(=O)OC(C)C)c1-c1ccc(Cl)cc1 (stereo unspecified),active: 35.5 µM,–
COc1cc(-c2nc3cnccn3c2Nc2ccc(C)cc2)ccc1O,"inconclusive [inhibitor, partial curve, poor fit]",–
O=C(c1csnn1)N1CCC[C@@]2(CCN(c3ncccn3)C2)C1,–,inactive: -12.5%
O=C(c1cc2c(ccc3ccccc32)oc1=O)N1CCN(CCO)CC1,"inconclusive [inhibitor, partial curve]",–
COc1ccc(-n2nnc3c(SCC(=O)NCC4CCCO4)ncnc32)cc1 (stereo unspecified),"inconclusive [inhibitor, full curve]",–
CC(=O)Nc1c(Br)cc(N2C(=O)CCC2=O)cc1Br,–,inactive: 0.763%
Cc1ccccc1-n1c(CSC(=N)N)nc2ccccc2c1=O,"inconclusive [inhibitor, single point]",–
COc1cc(-n2c(N)c(C(=O)NCc3ccco3)c3nc4ccccc4nc32)cc(OC)c1OC,"inconclusive [inhibitor, partial curve]",–
Cc1c(Br)c([N+](=O)[O-])nn1CCCC(=O)Nc1sc2c(c1C(N)=O)CCC(C)C2 (stereo unspecified),active: 11.2 µM,–
Cc1c(C(=O)NCc2ccccc2)oc2c1C(=O)CCC2,"inconclusive [inhibitor, partial curve, poor fit]",–
COc1c2ccoc2nc2c(OC)cccc12,"inconclusive [inhibitor, partial curve]",–
CCn1c(=O)cc(SCC(=O)NCc2cccnc2)c2ccccc21,"inconclusive [inhibitor, partial curve]",–
CCCCSc1nc(N)c(C#N)c(-c2cccs2)c1C#N,"inconclusive [inhibitor, partial curve]",–
COCCN(C(=S)Nc1c(C)cccc1C)C(C)c1cccnc1 (stereo unspecified),–,inactive: -3.15%
O=c1cc(-c2ccc(O)cc2)oc2cc(O)ccc12,"inconclusive [inhibitor, partial curve]",–
COc1cccc(/C=c2\sc3nc(-c4cccs4)nn3c2=O)c1OC,active: 14.1 µM,–

# Reference: PubChem BioAssay AID894 (National Center for Advancing Translational Sciences (NCATS), 2007)
